According to the supplement of paper PMC8728848:
Some of the results follow.

Tests used:
Test in all cases: glycan array binding signal (z-score within array); higher = stronger binding
Details in all cases: glycan notation: IUPAC condensed, linker removed
Gal(b1-3)GlcNAc = target: Gal(b1-3)GlcNAc
Summary of the method: (§1)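 The Consortium for Functional Glycomics database supplied 3228 glycan arrays, of which those lacking an available protein sequence were dropped. The binding signal, a within-array Z-score, was averaged across arrays of the same protein sequence and across linkers. Negative scores can be read as non-binding.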

[1] = target: Gal(b1-3)GlcNAc(b1-2)Man(a1-3)[Gal(b1-3)GlcNAc(b1-2)Man(a1-6)]Man(b1-4)GlcNAc(b1-4)GlcNAc
Summary of the method: as §1

[2] = target: Gal(b1-3)GlcNAc(b1-3)Gal(b1-3)GlcNAc
Summary of the method: as §1

[3] = target: Gal(b1-3)GlcNAc(b1-3)Gal(b1-4)Glc
Summary of the method: as §1

[4] = target: Gal(b1-3)GlcNAc(b1-3)Gal(b1-4)GlcNAc
Summary of the method: as §1

[5] = target: Gal(b1-3)[Fuc(a1-4)]GlcNAc
Summary of the method: as §1

[6] = target: Gal(b1-3)[Fuc(a1-4)]GlcNAc(b1-3)Gal(b1-3)[Fuc(a1-4)]GlcNAc
Summary of the method: as §1

[7] = target: Gal(b1-3)[Fuc(a1-4)]GlcNAc(b1-3)Gal(b1-4)GlcNAc
Summary of the method: as §1

[8] = target: Gal(b1-3)[Fuc(a1-4)]GlcNAc(b1-3)Gal(b1-4)[Fuc(a1-3)]GlcNAc
Summary of the method: as §1

[9] = target: Gal(b1-3)[GlcNAc(b1-6)]GalNAc
Summary of the method: as §1

[10] = target: Gal(b1-3)[Neu5Ac(a2-6)]GalNAc
Summary of the method: as §1

[11] = target: Gal(b1-3)[Neu5Ac(a2-6)]GlcNAc(b1-6)Gal(b1-4)Glc
Summary of the method: as §1

[12] = target: Gal(b1-3)[Neu5Ac(b2-6)]GalNAc
Summary of the method: as §1

[13] = target: Gal(b1-4)GalNAc(a1-3)[Fuc(a1-2)]Gal(b1-4)GlcNAc
Summary of the method: as §1

[14] = target: Gal(b1-4)GalNAc(b1-3)[Fuc(a1-2)]Gal(b1-4)GlcNAc
Summary of the method: as §1

Gal(b1-4)Glc = target: Gal(b1-4)Glc
Summary of the method: as §1

Gal(b1-4)Glc6S = target: Gal(b1-4)Glc6S
Summary of the method: as §1

Gal(b1-4)GlcNAc = target: Gal(b1-4)GlcNAc
Summary of the method: as §1

[15] = target: Gal(b1-4)GlcNAc(a1-6)Gal(b1-4)GlcNAc
Summary of the method: as §1

[16] = target: Gal(b1-4)GlcNAc(b1-2)Man(a1-3)[Gal(b1-4)GlcNAc(b1-2)Man(a1-6)]Man(b1-4)GlcNAc(b1-4)GlcNAc
Summary of the method: as §1

[17] = target: Gal(b1-4)GlcNAc(b1-3)Gal(b1-3)GlcNAc
Summary of the method: as §1

[18] = target: Gal(b1-4)GlcNAc(b1-3)Gal(b1-4)Glc
Summary of the method: as §1

[19] = target: Gal(b1-4)GlcNAc(b1-3)Gal(b1-4)GlcNAc
Summary of the method: as §1

[20] = target: Gal(b1-4)GlcNAc(b1-3)Gal(b1-4)GlcNAc(b1-3)Gal(b1-4)GlcNAc
Summary of the method: as §1

[21] = target: Gal(b1-4)GlcNAc(b1-3)Gal(b1-4)[Fuc(a1-3)]GlcNAc(b1-3)Gal(b1-4)[Fuc(a1-3)]GlcNAc
Summary of the method: as §1

[22] = target: Gal(b1-4)GlcNAc(b1-3)GalNAc
Summary of the method: as §1

[23] = target: Gal(b1-4)GlcNAc(b1-3)[Gal(b1-4)GlcNAc(b1-6)]Gal(b1-4)GlcNAc
Summary of the method: as §1

[24] = target: Gal(b1-4)GlcNAc(b1-3)[GlcNAc(b1-6)]Gal(b1-4)GlcNAc
Summary of the method: as §1

[25] = target: Gal(b1-4)GlcNAc(b1-6)Gal(b1-4)GlcNAc
Summary of the method: as §1

[26] = target: Gal(b1-4)GlcNAc(b1-6)Gal(b1-4)GlcNAc(b1-6)GalNAc
Summary of the method: as §1

[27] = target: Gal(b1-4)GlcNAc(b1-6)GalNAc
Summary of the method: as §1

[28] = target: Gal(b1-4)GlcNAc(b1-6)[Gal(b1-3)]GalNAc
Summary of the method: as §1

Gal3S(b1-3)GalNAc = target: Gal3S(b1-3)GalNAc
Summary of the method: as §1

Gal3S(b1-3)GlcNAc = target: Gal3S(b1-3)GlcNAc
Summary of the method: as §1

[29] = target: Gal3S(b1-3)[Fuc(a1-4)]GlcNAc
Summary of the method: as §1

Gal3S(b1-4)Glc = target: Gal3S(b1-4)Glc
Summary of the method: as §1

Gal3S(b1-4)Glc6S = target: Gal3S(b1-4)Glc6S
Summary of the method: as §1

Gal3S(b1-4)GlcNAc = target: Gal3S(b1-4)GlcNAc
Summary of the method: as §1

B1: MIC1 (Toxoplasma gondii), O00834 (protein)
chain: MGQALFLTVLLPVLFGVGPEAYGEASHSHSPASGRYIQQMLDQRCQEIAAELCQSGLRKMCVPSSRIVARNAVGITHQNTLQWRCFDTASLLESNQENNGVNCVDDCGHTIPCPGGVHRQNSNHATRHEILSKLVEEGVQRFCSPYQASANKYCNDKFPGTIARRSKGFGNNVEVAWRCYEKASLLYSVYAECASNCGTTWYCPGGRRGTSTELDKRHYTEEEGIRQAIGSVDSPCSEVEVCLPKDENPPLCLDESGQISRTGGGPPSQPPEMQQPADRSDERGGGKEQSPGGEAQPDHPTKGGNIDLPEKSTSPEKTPKTEIHGDSTKATLEEGQQLTLTFISTKLDVAVGSCHSLVANFLDGFLKFQTGSNSAFDVVEVEEPAGPAVLTIGLGHKGRLAVVLDYTRLNAALGSAAYVVEDSGCSSSEEVSFQGVGSGATLVVTTLGESPTAVSA
glycan array binding signal (z-score) (Gal(b1-3)GlcNAc): 0.051
glycan array binding signal (z-score) [1]: 0.008
glycan array binding signal (z-score) [2]: -0.247
glycan array binding signal (z-score) [3]: -0.292
glycan array binding signal (z-score) [4]: -0.317
glycan array binding signal (z-score) [5]: -0.154
glycan array binding signal (z-score) [6]: -0.194
glycan array binding signal (z-score) [7]: -0.219
glycan array binding signal (z-score) [8]: 0
glycan array binding signal (z-score) [9]: -0.288
glycan array binding signal (z-score) [10]: -0.024
glycan array binding signal (z-score) [11]: -0.095
glycan array binding signal (z-score) [12]: -0.255
glycan array binding signal (z-score) [13]: -0.051
glycan array binding signal (z-score) [14]: -0.009
glycan array binding signal (z-score) (Gal(b1-4)Glc): -0.087
glycan array binding signal (z-score) (Gal(b1-4)Glc6S): -0.074
glycan array binding signal (z-score) (Gal(b1-4)GlcNAc): -0.165
glycan array binding signal (z-score) [15]: -0.135
glycan array binding signal (z-score) [16]: -0.202
glycan array binding signal (z-score) [17]: -0.363
glycan array binding signal (z-score) [18]: -0.223
glycan array binding signal (z-score) [19]: -0.327
glycan array binding signal (z-score) [20]: -0.267
glycan array binding signal (z-score) [21]: -0.362
glycan array binding signal (z-score) [22]: -0.252
glycan array binding signal (z-score) [23]: -0.247
glycan array binding signal (z-score) [24]: -0.089
glycan array binding signal (z-score) [25]: 0.196
glycan array binding signal (z-score) [26]: -0.292
glycan array binding signal (z-score) [27]: -0.3
glycan array binding signal (z-score) [28]: -0.196
glycan array binding signal (z-score) (Gal3S(b1-3)GalNAc): -0.208
glycan array binding signal (z-score) (Gal3S(b1-3)GlcNAc): -0.308
glycan array binding signal (z-score) [29]: -0.255
glycan array binding signal (z-score) (Gal3S(b1-4)Glc): -0.149
glycan array binding signal (z-score) (Gal3S(b1-4)Glc6S): -0.223
glycan array binding signal (z-score) (Gal3S(b1-4)GlcNAc): -0.227
